Laboratory results from the supplement of paper PMC6657886.

How the values were obtained:
Test in all cases: Agar dilution on enriched GC agar; resistance determinants by microarray.
[1] = compound: CC[C@H]1OC(=O)[C@H](C)[C@@H](O[C@H]2C[C@@](C)(OC)[C@@H](O)[C@H](C)O2)[C@H](C)[C@@H](O[C@@H]2O[C@H](C)C[C@H](N(C)C)[C@H]2O)[C@](C)(O)C[C@@H](C)CN(C)[C@H](C)[C@@H](O)[C@]1(C)O [azithromycin]
[2] = compound: CO/N=C(\C(=O)N[C@@H]1C(=O)N2C(C(=O)O)=C(CSc3nc(=O)c(O)nn3C)CS[C@H]12)c1csc(N)n1 [ceftriaxone]
[3] = compound: CN[C@@H]1[C@H](O)[C@H](NC)[C@H]2O[C@@]3(O)C(=O)C[C@@H](C)O[C@H]3O[C@@H]2[C@H]1O [spectinomycin]
[4] = compound: CN(C)[C@@H]1C(O)=C(C(N)=O)C(=O)[C@@]2(O)C(O)=C3C(=O)c4c(O)cccc4[C@@](C)(O)[C@H]3C[C@@H]12 [tetracycline]
[5] = compound: CC1(C)S[C@@H]2[C@H](NC(=O)Cc3ccccc3)C(=O)N2[C@H]1C(=O)O [benzylpenicillin]

Work on “Neisseria gonorrhoeae isolate 421 (blaTEM plasmid: no, gyrA: Phe91, Gly95, mtrR promoter: -35delA, parC: Arg87, Glu91, penA: ins345Asp, ponA: Pro421, porB: Lys 120, Gly121, rpsJ: Met57, tetM plasmid: no)” yielded an MIC [1] of 0.015 µg/mL, an MIC [2] of no more than 0.002 µg/mL and an MIC [3] of 32 µg/mL. The MIC [4] was 0.5 µg/mL and the MIC [5] was 0.25 µg/mL.
“Neisseria gonorrhoeae isolate 382 (blaTEM plasmid: no, gyrA: Phe91, Asp95, mtrR promoter: wild type, parC: wild type, penA: ins345Asp, ponA: wild type, porB: wild type, rpsJ: wild type, tetM plasmid: no)” was tested, and the MIC [1] was 0.12 µg/mL, the MIC [2] was 0.004 µg/mL and the MIC [3] was 32 µg/mL. The MIC [4] was 0.06 µg/mL and the MIC [5] was 0.12 µg/mL.
Work on “Neisseria gonorrhoeae isolate 283 (blaTEM plasmid: no, gyrA: wild type, mtrR promoter: wild type, parC: wild type, penA: ins345Asp, ponA: wild type, porB: wild type, rpsJ: Met57, tetM plasmid: no)” yielded an MIC [1] of 0.12 µg/mL, an MIC [2] of no more than 0.002 µg/mL and an MIC [3] of 16 µg/mL. It also gave an MIC [4] of 1 µg/mL and an MIC [5] of no more than 0.015 µg/mL.
In the case of “Neisseria gonorrhoeae isolate 363 (blaTEM plasmid: no, gyrA: wild type, mtrR promoter: wild type, parC: wild type, penA: wild type, ponA: wild type, porB: wild type, rpsJ: wild type, tetM plasmid: no)”, the MIC [1] was 0.25 µg/mL, the MIC [2] was no more than 0.002 µg/mL and the MIC [3] was 32 µg/mL. The MIC [4] was 0.25 µg/mL and the MIC [5] was no more than 0.015 µg/mL.
“Neisseria gonorrhoeae isolate 237 (blaTEM plasmid: no, gyrA: wild type, mtrR promoter: wild type, parC: wild type, penA: wild type, ponA: wild type, porB: wild type, rpsJ: wild type, tetM plasmid: no)” was tested, and the MIC [1] was 0.12 µg/mL, the MIC [2] was 0.015 µg/mL and the MIC [3] was 16 µg/mL. For the same test system, the MIC [4] was 0.25 µg/mL and the MIC [5] was 0.06 µg/mL.
Work on “Neisseria gonorrhoeae isolate 201 (blaTEM plasmid: no, gyrA: wild type, mtrR promoter: wild type, parC: wild type, penA: wild type, ponA: wild type, porB: wild type, rpsJ: wild type, tetM plasmid: no)” yielded an MIC [1] of 0.12 µg/mL, an MIC [2] of no more than 0.002 µg/mL and an MIC [3] of 16 µg/mL. For the same test system, the MIC [4] was 0.12 µg/mL and the MIC [5] was no more than 0.015 µg/mL.
For “Neisseria gonorrhoeae isolate 152 (blaTEM plasmid: no, gyrA: Thr91, Gly95, mtrR promoter: wild type, parC: wild type, penA: ins345Asp, ponA: wild type, porB: wild type, rpsJ: wild type, tetM plasmid: no)”, the MIC [1] was 0.06 µg/mL, the MIC [2] was no more than 0.002 µg/mL and the MIC [3] was 8 µg/mL. The MIC [4] was 0.12 µg/mL and the MIC [5] was 0.12 µg/mL.
Test System “Neisseria gonorrhoeae isolate 344 (blaTEM plasmid: no, gyrA: wild type, mtrR promoter: wild type, parC: wild type, penA: ins345Asp, ponA: wild type, porB: wild type, rpsJ: wild type, tetM plasmid: no)” has an MIC [1] of 0.12 µg/mL, an MIC [2] of 0.004 µg/mL and an MIC [3] of 32 µg/mL. It also gave an MIC [4] of 0.25 µg/mL and an MIC [5] of 0.06 µg/mL.
With “Neisseria gonorrhoeae isolate 331 (blaTEM plasmid: no, gyrA: wild type, mtrR promoter: wild type, parC: wild type, penA: wild type, ponA: wild type, porB: wild type, rpsJ: wild type, tetM plasmid: no)” the MIC [1] was 0.03 µg/mL, the MIC [2] was 0.008 µg/mL and the MIC [3] was 16 µg/mL. For the same test system, the MIC [4] was 0.12 µg/mL and the MIC [5] was no more than 0.015 µg/mL.
“Neisseria gonorrhoeae isolate 50 (blaTEM plasmid: no, gyrA: Thr91, Gly95, mtrR promoter: wild type, parC: wild type, penA: wild type, ponA: wild type, porB: wild type, rpsJ: wild type, tetM plasmid: yes)” was tested, and the MIC [1] was 0.06 µg/mL, the MIC [2] was 0.004 µg/mL and the MIC [3] was 32 µg/mL. It also gave an MIC [4] of 8 µg/mL and an MIC [5] of 0.06 µg/mL.
“Neisseria gonorrhoeae isolate 358 (blaTEM plasmid: no, gyrA: wild type, mtrR promoter: wild type, parC: wild type, penA: ins345Asp, ponA: wild type, porB: wild type, rpsJ: wild type, tetM plasmid: no)” showed an MIC [1] of 0.015 µg/mL, an MIC [2] of 0.008 µg/mL and an MIC [3] of 32 µg/mL. It also gave an MIC [4] of 0.5 µg/mL and an MIC [5] of 0.12 µg/mL.
In the case of “Neisseria gonorrhoeae isolate 343 (blaTEM plasmid: no, gyrA: wild type, mtrR promoter: wild type, parC: wild type, penA: wild type, ponA: wild type, porB: wild type, rpsJ: wild type, tetM plasmid: no)”, the MIC [1] was 0.12 µg/mL, the MIC [2] was no more than 0.002 µg/mL and the MIC [3] was 8 µg/mL. It also gave an MIC [4] of 0.25 µg/mL and an MIC [5] of 0.06 µg/mL.
“Neisseria gonorrhoeae isolate 460 (blaTEM plasmid: no, gyrA: wild type, mtrR promoter: wild type, parC: wild type, penA: wild type, ponA: wild type, porB: wild type, rpsJ: wild type, tetM plasmid: no)” gave an MIC [1] of 0.5 µg/mL, an MIC [2] of 0.004 µg/mL and an MIC [3] of 16 µg/mL. For the same test system, the MIC [4] was 4 µg/mL and the MIC [5] was 0.25 µg/mL.
For “Neisseria gonorrhoeae isolate 313 (blaTEM plasmid: no, gyrA: wild type, mtrR promoter: wild type, parC: wild type, penA: ins345Asp, ponA: wild type, porB: wild type, rpsJ: wild type, tetM plasmid: no)”, the MIC [1] was 0.015 µg/mL, the MIC [2] was 0.008 µg/mL and the MIC [3] was 32 µg/mL. The MIC [4] was 0.06 µg/mL and the MIC [5] was 0.12 µg/mL.
“Neisseria gonorrhoeae isolate 404 (blaTEM plasmid: no, gyrA: Phe91, Asn 95, mtrR promoter: wild type, parC: Arg 87, Glu91, penA: ins345Asp, ponA: Pro421, porB: wild type, rpsJ: Met57, tetM plasmid: no)” showed an MIC [1] of 0.06 µg/mL, an MIC [2] of 0.004 µg/mL and an MIC [3] of 32 µg/mL. For the same test system, the MIC [4] was 1 µg/mL and the MIC [5] was 0.25 µg/mL.
“Neisseria gonorrhoeae isolate 24 (blaTEM plasmid: no, gyrA: wild type, mtrR promoter: wild type, parC: wild type, penA: wild type, ponA: wild type, porB: wild type, rpsJ: wild type, tetM plasmid: no)” showed an MIC [1] of 0.12 µg/mL, an MIC [2] of no more than 0.002 µg/mL and an MIC [3] of 32 µg/mL. For the same test system, the MIC [4] was 0.25 µg/mL and the MIC [5] was 0.03 µg/mL.
With “Neisseria gonorrhoeae isolate 349 (blaTEM plasmid: no, gyrA: Thr91, Gly95, mtrR promoter: wild type, parC: wild type, penA: ins345Asp, ponA: wild type, porB: Gly120, Ser121, rpsJ: Met57, tetM plasmid: no)” the MIC [1] was 0.03 µg/mL, the MIC [2] was no more than 0.002 µg/mL and the MIC [3] was 16 µg/mL. It also gave an MIC [4] of 0.5 µg/mL and an MIC [5] of 0.12 µg/mL.
For “Neisseria gonorrhoeae isolate 371 (blaTEM plasmid: no, gyrA: Phe91, Gly95, mtrR promoter: wild type, parC: Arg87, Glu91, penA: ins345Asp, ponA: Pro421, porB: Asp120, Ala121, rpsJ: Met57, tetM plasmid: no)”, the MIC [1] was 0.008 µg/mL, the MIC [2] was 0.004 µg/mL and the MIC [3] was 32 µg/mL. The MIC [4] was 1 µg/mL and the MIC [5] was 0.25 µg/mL.
Work on “Neisseria gonorrhoeae isolate 366 (blaTEM plasmid: yes, gyrA: Phe91, Asn 95, mtrR promoter: wild type, parC: Asn87, Lys91, penA: ins345Asp, ponA: Pro421, porB: wild type, rpsJ: Met57, tetM plasmid: no)” yielded an MIC [1] of 0.12 µg/mL, an MIC [2] of 0.125 µg/mL and an MIC [3] of 32 µg/mL. For the same test system, the MIC [4] was 1 µg/mL and the MIC [5] was no less than 32 µg/mL.
“Neisseria gonorrhoeae isolate 144 (blaTEM plasmid: no, gyrA: Thr91, Gly95, mtrR promoter: wild type, parC: Arg87, Glu91, penA: ins345Asp, ponA: wild type, porB: wild type, rpsJ: wild type, tetM plasmid: no)” showed an MIC [1] of 0.12 µg/mL, an MIC [2] of 0.015 µg/mL and an MIC [3] of 16 µg/mL. For the same test system, the MIC [4] was 0.5 µg/mL and the MIC [5] was 0.12 µg/mL.
“Neisseria gonorrhoeae isolate 486 (blaTEM plasmid: no, gyrA: wild type, mtrR promoter: wild type, parC: wild type, penA: wild type, ponA: wild type, porB: wild type, rpsJ: wild type, tetM plasmid: no)” showed an MIC [1] of 0.06 µg/mL, an MIC [2] of no more than 0.002 µg/mL and an MIC [3] of 32 µg/mL. For the same test system, the MIC [4] was 0.25 µg/mL and the MIC [5] was 0.03 µg/mL.
Work on “Neisseria gonorrhoeae isolate 480 (blaTEM plasmid: no, gyrA: Phe91, Gly95, mtrR promoter: -35delA, parC: Arg87, Glu91, penA: ins345Asp, ponA: Pro421, porB: wild type, rpsJ: Met57, tetM plasmid: no)” yielded an MIC [1] of 0.25 µg/mL, an MIC [2] of no more than 0.002 µg/mL and an MIC [3] of 16 µg/mL. It also gave an MIC [4] of 0.25 µg/mL and an MIC [5] of no more than 0.015 µg/mL.
Work on “Neisseria gonorrhoeae isolate 168 (blaTEM plasmid: no, gyrA: Phe91, Asp95, mtrR promoter: wild type, parC: wild type, penA: ins345Asp, ponA: Pro421, porB: wild type, rpsJ: Met57, tetM plasmid: no)” yielded an MIC [1] of 0.03 µg/mL, an MIC [2] of no more than 0.002 µg/mL and an MIC [3] of 8 µg/mL. For the same test system, the MIC [4] was 0.25 µg/mL and the MIC [5] was no more than 0.015 µg/mL.
For “Neisseria gonorrhoeae isolate 316 (blaTEM plasmid: no, gyrA: wild type, mtrR promoter: wild type, parC: wild type, penA: ins345Asp, ponA: wild type, porB: wild type, rpsJ: Met57, tetM plasmid: no)”, the MIC [1] was 0.25 µg/mL, the MIC [2] was no more than 0.002 µg/mL and the MIC [3] was 16 µg/mL. The MIC [4] was 0.25 µg/mL and the MIC [5] was no more than 0.015 µg/mL.
“Neisseria gonorrhoeae isolate 196 (blaTEM plasmid: no, gyrA: wild type, mtrR promoter: wild type, parC: wild type, penA: ins345Asp, ponA: wild type, porB: wild type, rpsJ: wild type, tetM plasmid: no)” gave an MIC [1] of 0.03 µg/mL, an MIC [2] of no more than 0.002 µg/mL and an MIC [3] of 32 µg/mL. For the same test system, the MIC [4] was 0.25 µg/mL and the MIC [5] was 0.06 µg/mL.

MIC of clinical N. gonorrhoeae isolates (2015-2017) by agar dilution on GC agar with 1% IsoVitaleX (ranges not stated); higher = less susceptible. No active / inactive call per row; the paper counts benzylpenicillin above 1 and ceftriaxone above 0.125 mg/L as resistant (EUCAST). The method is stated for benzylpenicillin and ceftriaxone and assumed for the other drugs. '<=' is inferred from pile-ups at the end values. Isolates are numbered anew.
